Data on 24 compounds can be found in the supplement of paper PMC10037445.

Where “and” joins values, the source holds several entries; their conditions need not be identical. Identical values can stand only once. ± gives the standard deviation of the averaged measurements. Whole data set: some 2,900 compounds, median “NF-kB SEAP reporter activity, fold change vs agonist alone” near 0.99, cut for the highest 2% near 2.6. This is one part of the list.

Assay [1] relates to RAW-Dual. In words: NF-kB SEAP reporter activity, fold change vs agonist alone; cytotoxicity flag (confluency mask): not cytotoxic; higher = enhanced NF-kB activity. In short, it runs like this: (§1)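 RAW-Dual macrophages (50,000 cells/well in DMEM, 384-well plates) received 50 nL of library stock by pin tool, then a PRR agonist 1 h later, and were kept at 37 °C, 5% CO2. After 20 hours, supernatant was read for IRF by QuantiLuc luminescence and for NF-κB by QuantiBlue absorbance at 620 nm. Reporter activity is fold change over agonist-alone wells. Cytotoxic wells had IncuCyte confluency below 70% of agonist controls in both mask sets.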

Assay [2] deals with RAW-Dual. In words: NF-kB SEAP reporter activity, fold change vs agonist alone; higher = enhanced NF-kB activity. The conditions noted are these: library stock concentration (final ~1000-fold dilution): 10 mM. In short, it runs like this:
as §1

Assay [3] concerns RAW-Dual. In words: NF-kB SEAP reporter activity, fold change vs agonist alone; cytotoxicity flag (confluency mask): cytotoxic (confluency <70% of control); higher = enhanced NF-kB activity. In short, it runs like this: as §1
Setting [4] is: agonist: ODN 1826 (TLR9) 0.5 ug/mL.
[5] abbreviates: agonist: Pam2CSK4 (TLR2/6) 0.1 ug/mL.
[6] abbreviates: agonist: Pam3CSK4 (TLR2/1) 0.1 ug/mL.
The mark [7] stands for this setting: cytotoxicity flag (confluency mask): not cytotoxic, agonist: Imiquimod (TLR7) […].
Setting [8] is: cytotoxicity flag (confluency mask): not cytotoxic, agonist: MPLA (TLR4) […].
Where [9] appears, read: cytotoxicity flag (confluency mask): cytotoxic (confluency <70% of control), agonist: Imiquimod (TLR7) […].
The mark [10] stands for this setting: cytotoxicity flag (confluency mask): cytotoxic (confluency <70% of control), agonist: MPLA (TLR4) […].

Take `NC1=NC2(c3cc(NC(=O)c4ccc(F)cn4)ccc3F)COCC2CS1` (stereo not given) (library stock concentration (final ~1000-fold dilution): 10 mM): the “NF-kB SEAP reporter activity” value came out at 1.41 in assay [1] (agonist: LPS (TLR4) 0.1 ug/mL), 0.875 in assay [1] (setting [4]), 0.904 in assay [1] (setting [5]) and 1.26 in assay [1] (setting [6]).
As for `C=CC(=O)Nc1cccc(Nc2nc(Nc3ccc(N4CCN(C(C)=O)CC4)cc3OC)ncc2C(F)(F)F)c1`, the “NF-kB SEAP reporter activity” value was 1.15 in assay [2] (setting [7]) and 1.55 in assay [2] (setting [8]).
Consider `C=CC(=O)Nc1cccc(Nc2nc(Nc3ccc(N4CCN(C(C)=O)CC4)cc3OC)ncc2C(F)(F)F)c1` (library stock concentration (final ~1000-fold dilution): 10 mM), for which the “NF-kB SEAP reporter activity” value was found to be 1.26 in assay [1] (agonist: LPS (TLR4) 0.1 ug/mL), 1.14 in assay [1] (setting [4]), 0.476 in assay [1] (setting [5]) and 0.491 in assay [1] (setting [6]).
Take `O=C(Nc1ccc(O)cc1)c1ccccc1O` (library stock concentration (final ~1000-fold dilution): 10 mM): the “NF-kB SEAP reporter activity” value was determined as 1.17 in assay [1] (agonist: LPS (TLR4) 0.1 ug/mL), 1.93 in assay [1] (setting [4]), 0.921 in assay [1] (setting [5]) and 1.04 in assay [1] (setting [6]).
For the compound `O=C(Nc1ccc(O)cc1)c1ccccc1O`, the results for the “NF-kB SEAP reporter activity” value in assay [2] (setting [7]) and in assay [2] (setting [8]) were 1.68 and 1.24, respectively.
As for `CS(=O)(=O)CCNCc1ccc(-c2ccc3ncnc(Nc4ccc(OCc5cccc(F)c5)c(Cl)c4)c3c2)o1`, the “NF-kB SEAP reporter activity” value was 2.12 in assay [2] (setting [7]) and 2 in assay [2] (setting [8]).
Turning to `CS(=O)(=O)CCNCc1ccc(-c2ccc3ncnc(Nc4ccc(OCc5cccc(F)c5)c(Cl)c4)c3c2)o1` (library stock concentration (final ~1000-fold dilution): 10 mM), the “NF-kB SEAP reporter activity” value in assay [1] (agonist: LPS (TLR4) 0.1 ug/mL) stood at 2.56; in assay [1] (setting [4]), 0.324; in assay [1] (setting [5]), 0.657; in assay [1] (setting [6]), 1.19.
`COC(=O)c1sccc1S(=O)(=O)Nc1ccc(Nc2ccccc2)cc1OC`: the “NF-kB SEAP reporter activity” value in assay [2] (setting [7]) was determined as 1.07; in assay [2] (setting [8]), 1.11.
For `COC(=O)c1sccc1S(=O)(=O)Nc1ccc(Nc2ccccc2)cc1OC` (library stock concentration (final ~1000-fold dilution): 10 mM), the “NF-kB SEAP reporter activity” value is 1.72 in assay [1] (agonist: LPS (TLR4) 0.1 ug/mL), 0.911 in assay [1] (setting [4]), 0.821 in assay [1] (setting [5]) and 0.872 in assay [1] (setting [6]).
Take `C=CC(=O)N1CCCC(n2nc(-c3ccc(Oc4ccccc4)cc3)c(C(N)=O)c2N)C1` (stereo not given): the entries for the “NF-kB SEAP reporter activity” value in assay [2] (setting [7]) and in assay [2] (setting [8]) were 0.67 and 0.637, respectively.
For `C=CC(=O)N1CCCC(n2nc(-c3ccc(Oc4ccccc4)cc3)c(C(N)=O)c2N)C1` (stereo not given) (library stock concentration (final ~1000-fold dilution): 10 mM), the “NF-kB SEAP reporter activity” value is 0.404 in assay [1] (agonist: LPS (TLR4) 0.1 ug/mL), 0.546 in assay [1] (setting [4]), 0.224 in assay [1] (setting [5]) and 0.272 in assay [1] (setting [6]).
As to `CCC1(O)C(=O)OCc2c1cc1n(c2=O)Cc2cc3cc(O)ccc3nc2-1` (stereo not given) (library stock concentration (final ~1000-fold dilution): 10 mM), the “NF-kB SEAP reporter activity” value in assay [1] (agonist: LPS (TLR4) 0.1 ug/mL) was found to be 1.08; in assay [1] (setting [4]) it was 0.937; in assay [1] (setting [5]), 1.07; in assay [1] (setting [6]), 1.14; in assay [3] (agonist: LPS (TLR4) 0.1 ug/mL), 1.9; in assay [3] (setting [4]), 2.17. The “NF-kB SEAP reporter activity” value in assay [3] (setting [5]) worked out at 1.03; in assay [3] (setting [6]), 1.5.
In the case of `CCC1(O)C(=O)OCc2c1cc1n(c2=O)Cc2cc3cc(O)ccc3nc2-1` (stereo not given), the “NF-kB SEAP reporter activity” value was determined as 2.34 in assay [2] (setting [9]), 2 in assay [2] (setting [10]), 0.896 in assay [2] (setting [7]) and 0.856 in assay [2] (setting [8]).
As to `O=C(/C=C/c1ccc(O)c(O)c1)O[C@@H]1C[C@](OC(=O)/C=C/c2ccc(O)c(O)c2)(C(=O)O)C[C@@H](O)[C@H]1O` (library stock concentration (final ~1000-fold dilution): 10 mM), the “NF-kB SEAP reporter activity” value in assay [1] (agonist: LPS (TLR4) 0.1 ug/mL) was 0.843; in assay [1] (setting [4]), 0.852; in assay [1] (setting [5]) it was 0.718; in assay [1] (setting [6]) it was 1.06.
In the case of `O=C(/C=C/c1ccc(O)c(O)c1)O[C@@H]1C[C@](OC(=O)/C=C/c2ccc(O)c(O)c2)(C(=O)O)C[C@@H](O)[C@H]1O`, the “NF-kB SEAP reporter activity” value in assay [2] (setting [7]) came out at 0.966; in assay [2] (setting [8]), 1.12.
For the compound `CC1OC(OC2C(Oc3cc(O)c(C(=O)CCc4ccc(O)cc4)c(O)c3)OC(CO)C(O)C2O)C(O)C(O)C1O` (stereo not given), the “NF-kB SEAP reporter activity” value in assay [2] (setting [7]) worked out at 0.957; in assay [2] (setting [8]), 1.03.
With `CC1OC(OC2C(Oc3cc(O)c(C(=O)CCc4ccc(O)cc4)c(O)c3)OC(CO)C(O)C2O)C(O)C(O)C1O` (stereo not given) (library stock concentration (final ~1000-fold dilution): 10 mM), the “NF-kB SEAP reporter activity” value in assay [1] (agonist: LPS (TLR4) 0.1 ug/mL) worked out at 0.867; in assay [1] (setting [4]) it was 0.991; in assay [1] (setting [5]), 0.784; in assay [1] (setting [6]), 1.06.
`C[N+]1(C)CCC[C@H]1C(=O)[O-]` (library stock concentration (final ~1000-fold dilution): 10 mM): the “NF-kB SEAP reporter activity” value in assay [1] (agonist: LPS (TLR4) 0.1 ug/mL) was found to be 1.31; in assay [1] (setting [4]), 1.1; in assay [1] (setting [5]), 1.17; in assay [1] (setting [6]) it was 0.89.
Take `C[N+]1(C)CCC[C@H]1C(=O)[O-]`: the figures for the “NF-kB SEAP reporter activity” value in assay [2] (setting [7]) and in assay [2] (setting [8]) were 0.943 and 1.04, respectively.
Take `CC1(C)C(C(=O)O)N2C(=O)CC2S1(=O)=O` (stereo not given) (library stock concentration (final ~1000-fold dilution): 10 mM): the “NF-kB SEAP reporter activity” value was 1.04 and 0.881 in assay [1] (agonist: LPS (TLR4) 0.1 ug/mL); 1.01 and 1.03 in assay [1] (setting [4]); 0.96 and 1.14 in assay [1] (setting [5]); 1.05 and 1.19 in assay [1] (setting [6]).
With `O=C(Nc1ccc(Cl)cc1)C1CCCN(C(=O)c2cccc(-c3ccco3)c2)C1` (stereo not given) (library stock concentration (final ~1000-fold dilution): 10 mM), the “NF-kB SEAP reporter activity” value in assay [1] (agonist: LPS (TLR4) 0.1 ug/mL) came to 1.39; in assay [1] (setting [4]) it was 0.788; in assay [1] (setting [5]), 0.498; in assay [1] (setting [6]), 0.668.
With `O=C(Nc1ccc(Cl)cc1)C1CCCN(C(=O)c2cccc(-c3ccco3)c2)C1` (stereo not given), the “NF-kB SEAP reporter activity” value amounted to 0.816 in assay [2] (setting [7]) and 1.03 in assay [2] (setting [8]).
For `CC1(C)CCC2(NC(=O)C(C)(F)F)CCC3(C)C(C(=O)C=C4C5(C)C=C(C#N)C(=O)C(C)(C)C5CCC43C)C2C1` (stereo not given) (library stock concentration (final ~1000-fold dilution): 10 mM), the “NF-kB SEAP reporter activity” value is 0.358 ± 0.053 in assay [3] (agonist: LPS (TLR4) 0.1 ug/mL), 0.173 ± 0.0087 in assay [3] (setting [4]), 0.0759 ± 0.018 in assay [3] (setting [5]) and 0.163 ± 0.0017 in assay [3] (setting [6]).
As to `CC1(C)CCC2(NC(=O)C(C)(F)F)CCC3(C)C(C(=O)C=C4C5(C)C=C(C#N)C(=O)C(C)(C)C5CCC43C)C2C1` (stereo not given), the “NF-kB SEAP reporter activity” value in assay [2] (setting [9]) is 0.14 ± 0.006; in assay [2] (setting [10]) it was 0.254 ± 0.0072.
